Source: the supplement of paper PMC3334620
In all, about 33,000 sequences were measured (“E-score (-0.5 to 0.5)”: median about -0.056, highest 2% from about 0.38 on). This is one part of the list.

What follows are sequences tested against Stb4 (UniProt P50104) (assay: PBM E-score (8-mer binding enrichment) (E-score (-0.5 to 0.5)); higher = stronger / more preferred TF binding; most listed sequences are background and not binding sites). Conditions: protein concentration: 200 nM; construct: GST-DNA-binding domain.
Protocol: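 Universal 'all 10-mer' protein binding microarrays (Agilent AMADID 015681) probed with GST-tagged S. cerevisiae TFs (full-length or DBD) made by in vitro transcription/translation (PURExpress), about 100-200 nM. Bound TF was detected with fluorescent anti-GST. Each ungapped 8-mer (which stands for itself and its reverse complement) is scored by the PBM enrichment score (E-score), a modified Wilcoxon-Mann-Whitney statistic from -0.5 to +0.5, computed with the Universal PBM Analysis Suite. Scale: above 0.35 generally sequence-specific binding.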

| Sequence | PBM E-score |
| --- | --- |
| TCACAACA | -0.129 |
| CACCAACA | -0.221 |
| AGTGGCTC | -0.032 |
| CATCTGTA | -0.0698 |
| AAGAACTA | 0.0277 |
| AGGTACAG | -0.315 |
| TAGAAACA | -0.14 |
| TCGAGTCA | -0.257 |
| GATATTGA | 0.044 |
| CGTCTTAG | -0.201 |
| ATAGCAGG | 0.0509 |
| CGCTGTAG | -0.107 |
| AACTCAGG | -0.213 |
| GACCAGAC | -0.119 |
| ACGCGGAG | 0.207 |
| CGGTCCCC | 0.141 |
| AGGAGATA | -0.234 |
| GGGCCGTA | 0.124 |
| ACCCAGAA | -0.109 |
| AAATTAGG | 0.0961 |
| AGGACTAC | -0.0483 |
| AATAATTC | 0.142 |
| ATCCCTGC | -0.0899 |
| ATAATGAA | -0.0859 |

| Sequence | PBM E-score |
| --- | --- |
| ATTTAGGA | -0.168 |
| AAGAGTCC | -0.0539 |
| CAGGCACC | -0.218 |
| GCCTCTGA | -0.229 |
| CTCGTCAG | -0.183 |
| ACATGCCA | -0.109 |
| CCGCTCTC | -0.00245 |
| CGCCTTGC | -0.128 |
| AGGATTTG | -0.26 |
| TGACGTAA | -0.165 |
| CCGTCTGA | -0.0369 |
| CCGTTTGA | -0.0251 |
| ACTTAAGA | -0.0287 |
| ACAATAGC | -0.199 |
| GTGCGGCA | 0.112 |
| CCGTAACG | 0.0401 |
| TCAGGAGA | -0.225 |
| GGAGAGCC | -0.0678 |
| AACGTGTC | 0.0378 |
| GAGGTAAA | 0.0411 |
| GAGGGAAC | 0.0772 |
| ACGGTATA | 0.0698 |
| ATCCTGCC | -0.0122 |
| ACGTTGGG | -0.262 |

| Sequence | PBM E-score |
| --- | --- |
| GCTTACAC | -0.157 |
| CCGCTCAC | -0.0195 |
| GGAACAAC | 0.219 |
| ATAGACGA | -0.209 |
| CCATGAAG | -0.00665 |
| GCGCGCCC | -0.0608 |
| GCGCACTA | -0.124 |
| CTACAACA | -0.192 |
| ACTATTGC | -0.0334 |
| AAGTGAAA | -0.0829 |
| AGGATGTC | -0.0723 |
| GAAACATA | 0.0521 |
| CTGGCGGA | 0.0779 |
| CGATGACA | 0.049 |
| CTAGCCCA | -0.248 |
| ATCAGCTA | -0.257 |
| CGCTCACA | -0.15 |
| AGGACCTG | -0.103 |
| AGTTCAGA | -0.188 |
| CCTATAGG | -0.0469 |
| CTTGCTGA | -0.154 |
| CACCGCCC | 0.145 |
| CGCGAGTC | -0.034 |
| CGAGTGTA | 0.0256 |

| Sequence | PBM E-score |
| --- | --- |
| ACACGGAT | 0.372 |
| CTAGGACA | -0.112 |
| ACAATACT | 0.0347 |
| AAGCTTCA | -0.0472 |
| CTTAATCA | -0.0261 |
| ACGACATA | -0.29 |
| AACGTTGC | 0.0148 |
| AGCAGCGA | -0.102 |
| GCAAACCC | 0.152 |
| GTAAGGGA | -0.0531 |
| AAACGGGT | 0.201 |
| ACTTGCCT | -0.0836 |
| CACGAAGC | -0.141 |
| GATGCGAC | 0.0109 |
| GTTTCCCA | -0.0576 |
| AAAATTCC | 0.165 |
| CGCGGCAC | 0.166 |
| GTGGCGAA | 0.0896 |
| GAACAGCA | 0.0106 |
| ACAGTCGT | -0.0477 |
| CCGAGGAC | 0.371 |
| GAAACGTA | 0.0657 |
